Experimental data from PubChem BioAssay AID504332 (National Center for Advancing Translational Sciences (NCATS), 2011).
Out of some 350,000 compounds screened, about 31,000 (8.9%) were called active. Inconclusive results, whose numbers are uncertain, are shown with a selection of clear calls. Calls come from the whole dose curve; as a rule, active = well fitted inhibition curve with a large enough effect; inconclusive = small, poorly fitted or top-dose-only effect; inactive = no such curve, though single readings can be large or run the other way. Where the call is inconclusive, the potency comes from a doubtful curve fit.

What follows are compounds tested against Histone-lysine N-methyltransferase EHMT2 (Homo sapiens) (UniProt Q96KQ7) (assay: qHTS Assay for Inhibitors of Histone Lysine Methyltransferase G9a). Conditions: G9a H3K9 monomethylation, AlphaScreen, 2 h; activity, negative = inhibition: at 59 µM (top of the series) unless noted.
How it was run: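 Readings reflect AlphaScreen signal from monomethyl-H3K9 antibody detection. HMT at 20 nM; substrate b-H3K9 500 nM; cofactor SAM 20 uM; 2 h RT reaction; compounds tested as titrations in qHTS with 15 min preincubation.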
% is set by controls: 0 for no effect and ±100 for the full control effect; potency is the fitted concentration of half-maximal effect; tags give direction and shape of the fitted curve.
Note: nearly all actives have a fitted effect of over 75% in size.

Sequence of UniProt Q96KQ7 (Q96KQ7 whole entry, looked up): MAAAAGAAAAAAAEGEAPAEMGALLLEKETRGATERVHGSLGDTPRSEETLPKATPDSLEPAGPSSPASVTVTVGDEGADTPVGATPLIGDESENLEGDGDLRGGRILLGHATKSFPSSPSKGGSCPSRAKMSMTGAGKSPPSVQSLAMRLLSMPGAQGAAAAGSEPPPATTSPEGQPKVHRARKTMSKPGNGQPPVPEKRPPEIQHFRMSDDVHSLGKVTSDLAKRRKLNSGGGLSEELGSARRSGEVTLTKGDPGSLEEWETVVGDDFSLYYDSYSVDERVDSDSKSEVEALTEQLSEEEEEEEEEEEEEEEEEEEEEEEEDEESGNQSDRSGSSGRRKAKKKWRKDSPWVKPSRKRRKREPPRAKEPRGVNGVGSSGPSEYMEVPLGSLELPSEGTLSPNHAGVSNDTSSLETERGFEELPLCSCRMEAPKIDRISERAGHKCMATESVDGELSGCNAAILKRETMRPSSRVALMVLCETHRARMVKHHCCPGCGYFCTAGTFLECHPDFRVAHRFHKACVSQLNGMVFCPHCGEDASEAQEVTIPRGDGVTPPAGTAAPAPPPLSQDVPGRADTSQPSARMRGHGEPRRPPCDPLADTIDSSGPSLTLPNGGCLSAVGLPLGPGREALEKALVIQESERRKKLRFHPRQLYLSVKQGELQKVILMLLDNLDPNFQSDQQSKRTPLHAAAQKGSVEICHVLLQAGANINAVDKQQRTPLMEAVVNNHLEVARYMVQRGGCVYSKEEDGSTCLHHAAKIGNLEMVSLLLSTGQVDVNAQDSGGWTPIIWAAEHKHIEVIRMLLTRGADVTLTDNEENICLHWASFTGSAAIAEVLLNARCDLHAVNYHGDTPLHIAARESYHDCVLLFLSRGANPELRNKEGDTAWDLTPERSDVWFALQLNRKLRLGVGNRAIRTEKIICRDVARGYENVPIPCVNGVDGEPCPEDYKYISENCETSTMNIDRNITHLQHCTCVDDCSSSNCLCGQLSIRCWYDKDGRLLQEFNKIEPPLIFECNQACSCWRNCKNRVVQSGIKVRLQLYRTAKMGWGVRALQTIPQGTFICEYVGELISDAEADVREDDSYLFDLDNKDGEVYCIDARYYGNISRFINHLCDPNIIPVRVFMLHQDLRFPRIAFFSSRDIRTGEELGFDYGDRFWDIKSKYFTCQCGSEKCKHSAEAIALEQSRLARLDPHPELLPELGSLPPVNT

Row | SMILES | Potency | activity, negative = inhibition
1 | CCN(CC)P1(=O)OC(c2cc(OC)c(OC)c(OC)c2)=Nc2c1c(C)nn2-c1ccccc1 (stereo not drawn) | active: 50.1 µM | –
2 | CS(=O)(=O)c1ccc(Cl)c(NC(=O)COC(=O)COc2ccc3c(c2)CCC3)c1 | – | inactive: -36.9% [at 102 µM]
3 | CN(C1CCCCC1)S(=O)(=O)c1ccc(F)c(C(=O)Nc2ccc(C(F)(F)F)cc2)c1 | – | inactive: 13.2%
4 | Oc1ccc(Nc2nc(-c3ccc(O)cc3)cs2)cc1 | inconclusive: 3.16 µM [inhibitor, partial curve, poor fit] | –
5 | COc1cccc(C(c2sc3nc(-c4ccco4)nn3c2O)N2CCCC2)c1 (stereo not drawn) | active: 14.1 µM | –
6 | COCCCn1c(SCC(=O)NCc2ccco2)nc2sc3c(c2c1=O)CCC3 | active: 50.1 µM | –
7 | COc1ccccc1-c1cncnc1N1CCN(C)CC1 | – | inactive: -39% [at 0.501 µM]
8 | COc1ccccc1N(Cc1cc(=O)[nH]c2ccccc12)C(C)=O | inconclusive: 89.1 µM [inhibitor, single point] | –
9 | CCN(CC)c1ccc(/C=N/O)cc1 | inconclusive: 35.5 µM [inhibitor, partial curve, poor fit] | –
10 | O=C(Nc1cccc(Cl)c1)C1CCN(c2nc3ccccc3nc2C(F)(F)F)CC1 | – | inactive: 6.75%
11 | Cc1ccc(Cn2cc(CCC(=O)O)c3ccccc32)cc1 | active: 44.7 µM | –
12 | CCN(CC)C(=O)CSc1nc2c(c(-c3cccnc3)c1C#N)CCCC2 | – | inactive: -6.08% [at 102 µM]
13 | NNC(=O)c1cc2c(s1)CCCCCC2 | inconclusive: 31.6 µM [inhibitor, full curve] | –
14 | COc1ccc(Nc2ncc(C(=O)N3CCN(c4ccc(OC)cc4)CC3)c3ccccc23)cc1 | active: 17.8 µM | –
15 | COc1cc(NC(=O)c2cccc(Cl)c2)c(OC)cc1NC(=O)CN1CCOCC1 | active: 44.7 µM | –
16 | Cc1ccccc1Cn1c(=O)n(Cc2ccco2)c(=O)c2oc3ccccc3c21 | – | inactive: -26.2%
17 | O=C(NCCSc1c[nH]c2ccccc12)c1ccco1 | active: 70.8 µM | –
18 | CN1CCN(C(=O)c2c(NC(=O)c3ccco3)sc3c2CCC(C(C)(C)C)C3)CC1 (stereo not drawn) | inconclusive: 50.1 µM [inhibitor, partial curve, poor fit] | –
19 | CCCNc1nc2nc3ccccn3c(=O)c2cc1C(=O)NCCN1CCOCC1 | – | inactive: -15.2% [at 102 µM]
20 | COC(=O)C1=C(C)N(C2CCCCC2)C(=O)/C1=C\c1cccs1 | active: 3.16 µM | –
21 | Cc1cc(S(=O)(=O)N2CCN(c3ncccn3)CC2)ccc1-n1cnnn1 | inconclusive: 22.4 µM [inhibitor, single point] | –
22 | c1ccc(C(c2ccccc2)c2ccn[nH]2)cc1 | – | inactive: 37% [at 102 µM]
23 | COc1ccc(C)cc1NC(=O)CCNS(=O)(=O)c1ccc2c(c1)CCC(=O)N2 | – | inactive: 15% [at 102 µM]
